Screen size: about 310,000 compounds; about 2,200 (0.71%) showed an effect of 50% or more. The effect is printed as a negative number. The list shows a part of the results.
Biological target: human ether-à-go-go-related gene (hERG) potassium channel (human, UniProt Q12809)
Test: primary screen, population patch clamp on CHO cells stably expressing hERG

Sequence of human ether-à-go-go-related gene (hERG) potassium channel (Q12809 whole entry, looked up): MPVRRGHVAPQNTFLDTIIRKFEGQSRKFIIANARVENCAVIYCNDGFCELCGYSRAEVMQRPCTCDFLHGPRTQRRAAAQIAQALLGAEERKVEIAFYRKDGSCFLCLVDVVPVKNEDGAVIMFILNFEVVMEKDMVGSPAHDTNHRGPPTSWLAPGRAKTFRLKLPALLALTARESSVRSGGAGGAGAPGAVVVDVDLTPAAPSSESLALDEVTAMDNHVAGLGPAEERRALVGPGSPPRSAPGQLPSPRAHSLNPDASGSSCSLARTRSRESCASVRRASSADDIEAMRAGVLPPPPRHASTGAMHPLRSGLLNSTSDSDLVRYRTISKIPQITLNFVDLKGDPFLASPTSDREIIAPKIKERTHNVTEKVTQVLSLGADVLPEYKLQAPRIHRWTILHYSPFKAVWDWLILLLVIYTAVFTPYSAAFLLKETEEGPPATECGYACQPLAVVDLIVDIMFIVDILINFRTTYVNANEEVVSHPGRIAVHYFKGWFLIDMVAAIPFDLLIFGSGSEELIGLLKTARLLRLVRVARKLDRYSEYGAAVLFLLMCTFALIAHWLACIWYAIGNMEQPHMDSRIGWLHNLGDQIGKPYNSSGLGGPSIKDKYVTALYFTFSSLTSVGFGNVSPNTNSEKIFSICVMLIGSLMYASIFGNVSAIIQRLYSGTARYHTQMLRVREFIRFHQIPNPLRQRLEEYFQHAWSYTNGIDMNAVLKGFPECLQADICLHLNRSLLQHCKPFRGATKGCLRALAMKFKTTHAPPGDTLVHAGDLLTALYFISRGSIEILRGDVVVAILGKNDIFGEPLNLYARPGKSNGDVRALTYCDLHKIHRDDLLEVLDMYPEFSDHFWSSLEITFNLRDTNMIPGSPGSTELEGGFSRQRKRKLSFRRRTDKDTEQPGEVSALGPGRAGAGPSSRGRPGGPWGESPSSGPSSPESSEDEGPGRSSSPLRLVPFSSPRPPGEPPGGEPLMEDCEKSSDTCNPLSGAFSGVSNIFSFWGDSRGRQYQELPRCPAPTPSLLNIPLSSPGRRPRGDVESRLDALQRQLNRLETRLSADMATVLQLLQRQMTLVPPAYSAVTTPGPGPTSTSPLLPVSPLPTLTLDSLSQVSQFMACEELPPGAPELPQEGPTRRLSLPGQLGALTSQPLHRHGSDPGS

Compound | hERG current change (%, negative = inhibition) at 1uM [%]
N/C(=N\OC(=O)CCCOc1ccccc1)c1ccc(Br)cc1 | 15.2
NS(=O)(=O)c1ccc(NC(=O)Cn2ncc3c2-c2ccccc2OC3)cc1 | 11.3
Cc1ccc(-c2noc(C3CCCN(C(=O)c4ccccc4Br)C3)n2)o1 (stereo not drawn) | -3.01
COc1ccc(-c2ccc3c(N)c(C(=O)c4ccc(OC)c(OC)c4)sc3n2)cc1 | 9.42
CCCN(c1ccc(OCC)cc1)S(=O)(=O)c1ccc2c(c1)CCN2C(=O)CCC(=O)O | 12.5
O=C(COC(=O)Cc1c[nH]c2ccccc12)NC1CCS(=O)(=O)C1 (stereo not drawn) | 15.1
Cc1cc(NC(=O)C2CCCN2C(=O)Nc2c(C)cccc2C)ccc1-n1cnnn1 (stereo not drawn) | 13.2
COc1cccc(-c2csc(NC(=O)Oc3ccccc3)n2)c1 | -2.87
COc1ccccc1NS(=O)(=O)c1cc(NC(=O)c2cccs2)ccc1N1CCOCC1 | 6.6
Cc1ccccc1N1CC(C(=O)Nc2ccc3c(c2)OCO3)CC1=O (stereo not drawn) | 7.11
CCOc1ccc(NC(C)C(=O)N/N=C/c2cccs2)cc1 (stereo not drawn) | 11.1
CC(C)CCN(C(=O)Nc1ccc(Cl)cc1)C1CCN(C(C)C)CC1 | -57.6
O=C(c1ccccc1)c1cccc(C(=O)c2ccccc2)c1 | 4.21
CC(=O)Nc1ccc(S(=O)(=O)NCc2nc(-c3ccc(C)cc3)no2)cc1 | 23.3
COCc1nn2c(N)c(-c3ccccc3)cnc2c1-c1ccccc1 | 16.4
Cc1ccc(C(=O)Nc2nccc(-c3cccs3)n2)cc1 | -26
COc1ccc(-c2ccnc(SCC(=O)Nc3ccccn3)n2)cc1 | 7.35
COc1ccc(-c2nc(CS(=O)CC(=O)N3CCN(C)CC3)c(C)o2)cc1OC (stereo not drawn) | 7.32
Cc1cc(OCC(=O)N2CCC(O)CC2)c2c(C)cc(=O)oc2c1 | 15.5

Compound | hERG current change (%, negative = inhibition) at 1uM [%]
COCCCn1c(N)c(C(=O)OCCOC)c2nc3ccccc3nc21 | -6.84
Cc1cccc(-c2nnc(SCc3ccccc3)o2)c1 | 9.96
Cc1cccc(C(=O)NNC(=O)c2c(O)c3ccccc3n(C)c2=O)c1 | 12.6
CSc1ccc(S(=O)(=O)N2CCC(C(=O)NCC3CCCO3)CC2)cc1 (stereo not drawn) | 10.3
CN(Cc1ccccc1)C(=O)CN(c1ccccc1Cl)S(C)(=O)=O | 17.3
O=C(NCc1ccco1)c1sc2cccc(F)c2c1Cl | -0.443
O=C(NC1CCN(C(=S)Nc2ccc(F)cc2)CC1)c1ccco1 | 4.6
COc1cc2c(cc1OC)C(C)N(S(=O)(=O)c1cn(C)cn1)CC2 (stereo not drawn) | 9.25
Cc1ccc(Nc2ncnc3nc[nH]c23)cc1Cl | 15.1
O=c1[nH]n2c(=O)c3c([nH]c2c1N=Nc1ccccc1)CCC3 | 13.5
O=C(Cn1ccc2ccccc2c1=O)NCC1COc2ccccc2O1 (stereo not drawn) | -0.756
O=S1(=O)CCN(C(CCO)c2cccc(C(F)(F)F)c2)CC1 (stereo not drawn) | -15.2
COc1ccccc1CC(=O)N1CCCc2cc(C)ccc21 | 14.5
CN(C)c1ccc(NC(=O)CN2C3CCCC2CC(NC(=O)c2ccccc2)C3)cc1 (stereo not drawn) | -26.3
Br.O=C(CN1CCCCC1)c1ccc(OC(F)F)cc1 | -63.4
O=C(/C=C/c1ccc2c(c1)OCO2)N1CCN(c2ccccc2F)CC1 | 11.2
O=C(CC1CCS(=O)(=O)C1)NC1CCCCC1 (stereo not drawn) | 8.04
COc1ccc(C(=O)C[n+]2ccc(-c3nnc4n3CCCCC4)cc2)cc1.[Br-] | 11.8
COC(=O)C1=C(C)N(Cc2ccco2)C(=O)N[C@@H]1c1ccc(Br)cc1 | 11.9

Compound | hERG current change (%, negative = inhibition) at 1uM [%]
COc1ccccc1CC(=O)N1CCC(CCC(=O)NC2CC2)CC1 | 14.8
O=C(Cc1cccs1)Nc1ccc(-c2nnc(-c3ccco3)o2)cc1 | 3.6
COc1ccccc1NC(=O)CN1CCC(n2nnc3cc(F)ccc32)CC1 | -12
CCOCCCNC(=O)Cn1cnc2sc(C)c(S(=O)(=O)N3CCN(c4ncccn4)CC3)c2c1=O | 13.7
Cc1ccc(NC(=O)CN(C)C(=O)c2ccc3[nH]c4c(c3c2)CC(C)CC4)cc1 (stereo not drawn) | 9.18
CN(CC(=O)Nc1ccc(N2CCOCC2)cc1)C(=O)CSc1ccc(F)cc1 | 8.04
Cc1ccc(NC(=O)Cn2nnc(C(=O)NCc3cccs3)c2N)cc1Cl | 15.4
Cc1c(NC(=O)Nc2ccc(Cl)cc2)c(=O)n(-c2ccccc2)n1C | 11
O=C(NCCCNC(=O)c1ccccc1Br)c1ccccc1Br | 17.5
CCCCOc1ccc(C(=O)NNC(=O)C2C3C=CC(C3)C2C(=O)O)cc1 (stereo not drawn) | 11.1
O=C(CCn1c(=O)[nH]c2ccccc2c1=O)NCCSCc1ccccc1 | 4.23
Cc1cc(NC(=O)OC2CCCCC2)ccc1[N+](=O)[O-] | 13
O=C(NC1CCCC1)c1cc2c(=O)n3ccccc3nc2s1 | 3.54
CCN(CC)C(=O)Cn1c(=O)n(CCCC(=O)NCc2ccccc2)c(=O)c2sccc21 | 9.92
CCOC(=O)Cc1c(C)nc2c(-c3cccc(Br)c3)c[nH]n2c1=O | 2.95
CC1=CCC2C(=O)N(c3cccc(C(=O)N(C)C4CCCCC4)c3)C(=O)C2C1 (stereo not drawn) | 3.45
COC(=O)c1cccc(NC(=O)CN2CCN(Cc3ccccc3)CC2)c1 | -4.12
COc1cc(OC)cc(C(=O)NCC(=O)N2CCC(C)CC2)c1 | 18
COc1ccc(C2=NN(C(=O)CSc3nnc(-c4ccccc4F)o3)C(c3ccco3)C2)cc1 (stereo not drawn) | 12.2

Source: PMC4336329 (PLoS ONE, 2015)
